The values that follow come from PubChem BioAssay AID1159614 (National Center for Advancing Translational Sciences (NCATS), 2016).

Each structure is given as a SMILES string. In all, about 45,000 compounds went through this assay and about 65 (0.1%) were called active. Calls come from the whole dose curve; as a rule, active = well fitted activation curve with a large enough effect; inconclusive = small, poorly fitted or top-dose-only effect; inactive = no such curve, though single readings can be large or run the other way. Some of the results follow.

Chain of UniProt P54803 (P54803 whole entry, looked up): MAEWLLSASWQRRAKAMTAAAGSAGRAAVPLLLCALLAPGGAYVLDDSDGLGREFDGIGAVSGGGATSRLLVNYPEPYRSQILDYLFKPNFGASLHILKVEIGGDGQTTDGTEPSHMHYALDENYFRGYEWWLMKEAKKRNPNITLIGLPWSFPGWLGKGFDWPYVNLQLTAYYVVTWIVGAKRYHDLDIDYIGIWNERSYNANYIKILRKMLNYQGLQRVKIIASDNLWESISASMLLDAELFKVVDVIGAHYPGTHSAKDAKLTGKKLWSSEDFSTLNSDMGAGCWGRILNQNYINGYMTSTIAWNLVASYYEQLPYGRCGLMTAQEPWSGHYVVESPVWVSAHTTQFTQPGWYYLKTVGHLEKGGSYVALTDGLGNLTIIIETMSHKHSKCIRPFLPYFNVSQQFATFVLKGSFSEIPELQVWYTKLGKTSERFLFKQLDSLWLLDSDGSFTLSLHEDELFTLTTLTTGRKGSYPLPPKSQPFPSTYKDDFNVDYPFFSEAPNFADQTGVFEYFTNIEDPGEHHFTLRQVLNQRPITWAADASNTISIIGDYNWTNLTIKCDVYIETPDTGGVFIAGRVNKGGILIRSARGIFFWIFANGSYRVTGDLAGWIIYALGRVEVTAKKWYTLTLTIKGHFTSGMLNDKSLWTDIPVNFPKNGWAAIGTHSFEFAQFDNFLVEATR

This assay deals with Galactocerebrosidase (Homo sapiens) (UniProt P54803). Kind of assay: A Novel Cell-Based Assay to Identify Small Molecules for B -Galactocerebrosidase. Note: 0% is about no effect; nearly all actives have a fitted effect of over 65% in size. To be noted: 145M-Twi-hGALC-G270D cells, HMU-beta-Gal fluorescence, 48 h; series mostly up to 57.5 µM; activation: at the top concentration. In short, it runs like this:
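qHTS, 1536-well; 145M-Twi-hGALC-G270D cells (WT line also made) in DMEM/F12 + 10% FBS; compound incubation on live cells; HMU-β-gal 0.1 mM final, pH 5.2, NaTC; carbonate stop; fluorescence increase = enhanced residual activity.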
On to `COc1cccc(CNC(=O)CCn2ccc3cc(S(=O)(=O)N4CCCC4)ccc32)c1`, for which the “activation” value is inactive: -7.12%.
For the molecule `O=C(NCCn1cc(SCc2ccc(C(F)(F)F)cc2)c2ccccc21)c1ccccc1F`, the “activation” value is inactive: -2.82%.
For `O=C(NCc1ccc(F)cc1)c1ccc2c(c1)N(Cc1ccc(F)cc1Cl)C(=O)CS2`, the “activation” value was inactive: -2.97%.
For the molecule `CCCSc1ncc(Cl)c(C(=O)Nc2ccc(OC)cc2OC)n1`, the “activation” value is inactive: -5.32%.
With `COc1ccc(C2=C(C)C(=O)N(Cc3ccc(C(=O)NCc4ccccc4C)cc3)S2(=O)=O)cc1`, the “activation” value was inactive: 2.68%.
In the case of `O=S(=O)(NCCc1ccc(Cl)cc1)c1ccc(N2CCCCS2(=O)=O)cc1`, the “activation” value is inactive: -12%.
Regarding `Cc1ccc(C2C=C(c3ccc(Cl)cc3)Nc3nc(NC(=O)CCC(=O)O)nn32)cc1` (stereo not drawn), the “activation” value was inactive: -5.24%.
For `CCOc1ccc(NC(=O)CCn2c(-c3ccc(F)cc3)cc(C(C)=O)c2C)cc1`, the “activation” value is inactive: -10.3%.
In the case of `COc1ccc(NC(=O)Nc2nnc(SCC(=O)Nc3cccc(C)c3C)s2)cc1`, the “activation” value is inactive: -19.5%.
To `CCn1cnc2c(=O)oc3ccc(S(=O)(=O)N4CCN(c5cc(C)ccc5C)CC4)cc3c21` belongs inactive: -8.06%; to `CCC(C)Cn1c(COc2ccc(OC)cc2)nc2ccccc21` (stereo not drawn), inactive: -14.3%; to `CCCOc1ccc(C(=O)Nc2cc3nn(-c4ccc(CC)cc4)nc3cc2C)cc1`, inactive: -24.8%.
For `O=C(CSc1nnc(-c2ccccc2)c(-c2ccccc2)n1)Nc1ccccc1Cl`, the “activation” value is inactive: -6.18%.
As for `COc1ccccc1OCCCn1c(-c2ccc(Cl)cc2)nc2ccccc2c1=O`, the “activation” value was inactive: -5.45%.
Turning to `CCOC(=O)CC(NC(=O)c1cc2cc(OC)ccc2oc1=O)c1ccc(OC)cc1` (stereo not drawn), the “activation” value was inactive: -4.94%.
To `Cc1cccc(C(=O)Nc2nnc(S(=O)(=O)N3CCC(C)CC3)s2)c1` belongs inactive: -18%; to `O=C(CCC(=O)N1CC2CCCN2c2ccccc21)NCc1ccccc1F` (stereo not drawn), inactive: -6.54%; to `CCOC(=O)Cc1c(C)nc2c(-c3ccc(OC)c(OC)c3)c(C)nn2c1C`, inactive: -15.5%.
Consider `O=C(NCc1ccccc1)c1cccc(Nc2nc3ccccc3n3nnnc23)c1`, for which the “activation” value is inactive: -15.7%.
`Cc1cccc(OCC(=O)OCc2cc(=O)n3nc(C4CC4)sc3n2)c1`: the “activation” value was inactive: -6.63%.
To `CCOC(=O)c1c(C)oc2ncnc(Nc3ccc(CC)cc3)c12` belongs inactive: -14.2%; to `CC1CCN(C(=O)CN2CCSc3ccc(S(=O)(=O)N(C)C)cc32)CC1`, inactive: -19.6%.
Turning to `O=C(C1CCN(S(=O)(=O)c2cccc3nonc23)CC1)N1CCN(c2ccc(F)cc2)CC1`, the “activation” value is inactive: -38.6%.
Turning to `CCOc1ccc(CNC(=O)CCS(=O)(=O)c2cc3c4c(c2)CCN4C(=O)CC3)cc1`, the “activation” value is inactive: -0.789%.
As for `CC(=O)c1ccc(NC(=O)C(Cc2ccccc2)NS(=O)(=O)c2ccc3c(c2)CCC(=O)N3)cc1` (stereo not drawn), the figure is inactive: 2.51%; as for `COc1ccc(/C=C/c2nc(-c3ccccc3O)n(-c3ccccc3)n2)cc1OC`, inactive: 0.794%.
As for `Cc1cc(C)cc(OC(=O)c2cc(-c3ccc4c(c3)OCCO4)on2)c1`, the figure is inactive: -7.89%; as for `CN(C)CCCN1c2ccccc2Sc2ccc(Cl)cc21`, inactive: -6.71%.
For the molecule `CCC(=O)N1CCc2cc(S(=O)(=O)NCCC(=O)NC(C)c3ccccc3)ccc21` (stereo not drawn), the “activation” value is inactive: -5.3%.
Take `Cc1c(C2=CCN(S(=O)(=O)c3ccc(Cl)cc3)CC2)c2ccccc2n1CC(=O)N1CCCC1`: the “activation” value is inactive: -23.4%.
In the case of `CCc1ccc2oc(C(=O)Nc3nc(-c4ccc(F)cc4)ns3)c(C)c2c1`, the “activation” value was inactive: -11.6%.
Regarding `COc1ccc(-c2cc(C(F)(F)F)n3nc(C(=O)OC(C)C)cc3n2)cc1`, the “activation” value was inactive: -5.71%.
As to `Cc1cc2c(n1-c1ccc(C(=O)NCCc3ccc(Cl)cc3)cc1)CCC(C)C2` (stereo not drawn), the “activation” value was inactive: -14.5%.
Consider `COc1ccc(N(Cc2nnc3n2CCCCC3)C(=O)Nc2ccc(Cl)cc2)cc1Cl`, for which the “activation” value is inactive: -5.85%.
Turning to `CCC1CCCCN1C(=O)CSc1n[nH]c(-c2ccccc2)n1` (stereo not drawn), the “activation” value is inactive: -13.6%.
For the molecule `Cc1c(Cl)cccc1NC(=O)C(C)n1nc(C)c2c(C)n(-c3ccccc3)nc2c1=O` (stereo not drawn), the “activation” value is inactive: -20.4%.
As for `Cc1cccc(OCC(=O)Nc2ccc(OCc3cc(=O)n4cc(C)ccc4n3)cc2)c1`, the figure is inactive: -13.1%; as for `CC(=O)Nc1ccc(Nc2nc3ccc(Cl)cc3n3cnnc23)cc1`, inactive: -5.11%; as for `CNC(=O)c1ccc(-c2nc(CN3CCc4ccccc43)c(C)o2)cc1`, inactive: -11.8%.
For `CCOc1ccccc1CNC(=O)C1CCN(c2nnc(C)c3c(C)n(-c4ccc(C)cc4)nc23)CC1`, the “activation” value was inactive: -7.87%.
Turning to `O=C(CC1(O)C(=O)N(CCc2ccccc2)c2ccc(Br)cc21)c1ccccc1` (stereo not drawn), the “activation” value was inactive: -23.7%.
Regarding `Cc1cccc(N2CCN(S(=O)(=O)c3nnc(NC(=O)c4ccc(Cl)cc4)s3)CC2)c1`, the “activation” value was inactive: -1.82%.
For the molecule `COc1ccc(OC)c(NC(=O)c2ccc3nc(C(C)C)oc3c2)c1`, the “activation” value is inactive: -10.6%.
As for `O=C1CC(c2nnc(Cc3ccc(F)cc3)o2)CN1c1ccccc1` (stereo not drawn), the figure is inactive: -4.82%; as for `Fc1ccccc1-n1ncc2c1ncn1nc(COc3ccc(Cl)cc3)nc21`, inactive: -11.7%.
With `COc1ccccc1CNC(=O)c1cc(S(=O)(=O)N2CCCCCC2)cn1C`, the “activation” value is inactive: -12.6%.
Regarding `Cc1cccc(NC(=O)CSc2cn(CC(=O)N3CCC(C)CC3)c3ccccc23)c1C`, the “activation” value is inactive: -8.17%.
For the molecule `COc1ccccc1NC(=O)c1sc2nc(C)c(C(=O)Nc3ccc(Cl)cc3)c(-c3ccc(Br)cc3)c2c1N`, the “activation” value is inactive: -21.4%.
Turning to `CC(C)(C)C(=O)NC1CC(=O)N(c2ccc3c(c2)OCCO3)C1` (stereo not drawn), the “activation” value is inactive: -1.41%.
As for `Cc1ccccc1CN1CCC(CNC(=O)c2cc3ccc4cccnc4c3[nH]2)CC1`, the “activation” value was inactive: -4.6%.
As to `CCc1cccc(NC(=O)c2cc(S(=O)(=O)N3CCCCCC3)cn2C)c1`, the “activation” value was inactive: -4.17%.
As for `COc1ccccc1N1CCN(C(=O)c2cc3c(s2)-c2ccccc2OC3)CC1`, the figure is inactive: -14.2%; as for `CCN(c1ccccc1)S(=O)(=O)c1ccc(NC(=O)c2cc(=O)c3c(C)cc(C)cc3o2)cc1`, inactive: 2.84%.
As for `COc1cccc(-c2cc(C(F)(F)F)n3nc(-c4ccc(C)cc4)cc3n2)c1`, the figure is inactive: -4.2%; as for `CNS(=O)(=O)c1ccc(NC(=O)c2nc3nc(C)cc(C(F)F)n3n2)cc1`, inactive: -0.615%; as for `O=C1CCc2cc(S(=O)(=O)NC(C(=O)Nc3ccc(F)cc3)c3ccccc3)ccc2N1` (stereo not drawn), inactive: -15.9%.
`CCc1ccccc1N1CC(c2nc3ccccc3n2CCCCOc2ccccc2OC)CC1=O` (stereo not drawn): the “activation” value was inactive: 8.01%.
In the case of `CC(C)NC(=O)Cc1csc2nc(-c3ccccc3)cn12`, the “activation” value is inactive: -9.11%.
As for `Cc1noc(Cn2c(=O)c3cc4c(cc3n(CC(=O)Nc3ccc(C(C)C)cc3)c2=O)OCO4)n1`, the figure is inactive: -24.6%; as for `CCOc1ccc(NS(=O)(=O)c2ccc3[nH]cc(C(=O)N4CCCC4)c(=O)c3c2)cc1`, inactive: -13.3%.
On to `COc1cc2c(cc1OC)C(COc1ccc(F)cc1)N(C(=O)C(C)C)CC2` (stereo not drawn), for which the “activation” value was inactive: -29.1%.
Regarding `O=c1n(Cc2ccccc2)nc2n1-c1ccccc1OC2`, the “activation” value is inactive: -3.66%.
Take `O=c1ccc2ccccc2o1`: the “activation” value is inactive: -17%.
`CC(C)c1cnc2c(c1SCc1ccc([N+](=O)[O-])cc1)c(=O)n(C)c(=O)n2C`: the “activation” value is inactive: -10%.
Turning to `Cc1nc2nc(CNC(=O)c3cccc(F)c3)nn2c(C)c1CCC(=O)Nc1ccc(F)cc1`, the “activation” value was inactive: -9.65%.
With `Fc1ccc(Nc2nc(SCc3ccc(Cl)cc3)nc3ccccc23)cc1`, the “activation” value was inactive: -23.1%.
For `Cc1ccccc1C(=O)NCC(c1ccc(N(C)C)cc1)N1CCCC1` (stereo not drawn), the “activation” value was inactive: -16.4%.
Regarding `COc1ccc(S(=O)(=O)N(Cc2nc(-c3ccccc3)no2)C2CCCCC2)cc1`, the “activation” value is inactive: -12.3%.
For `Cc1cc(O)c2ccccc2c1O`, the “activation” value was inactive: -12.4%.
As for `COc1cc(C2CC(=O)N(c3ccc(C)c(Cl)c3)C3=C2C(=O)OC3)cc(OC)c1OC` (stereo not drawn), the figure is inactive: -3.24%.
Turning to `O=C(CCS(=O)(=O)c1ccc(Br)s1)Nc1c(F)cccc1F`, the “activation” value is inactive: -8.47%.
With `CNC(=O)C1CCC(Cn2c(=O)c3sccc3n(CC(=O)N3CCCCC3C)c2=O)CC1` (stereo not drawn), the “activation” value is inactive: -29.4%.
Take `O=S(=O)(NCC(c1ccco1)S(=O)(=O)c1ccccc1)c1cc(F)ccc1F` (stereo not drawn): the “activation” value was inactive: -2.48%.
With `Cc1cccc(-c2noc(-c3cccnc3NCc3ccccc3Cl)n2)c1`, the “activation” value was inactive: 5.39%.
Take `Cc1ccc(Cl)cc1N1CCN(CCCNC(=O)Cn2ncc3c([nH]c4ccccc43)c2=O)CC1`: the “activation” value was inactive: 0.239%.
As to `Cc1ccc(C)c(NC(=O)CN(C)S(=O)(=O)c2cccc3cccnc23)c1`, the “activation” value is inactive: 2.88%.
Turning to `Cc1ccc(C(=O)Nc2ccccc2C(=O)OCc2cc(=O)n3nc(C(C)C)sc3n2)cc1`, the “activation” value is inactive: -10.4%.
For the molecule `COc1ccc(CC(=O)NCCS(=O)(=O)N2CCN(c3ccccc3F)CC2)cc1OC`, the “activation” value is inactive: -16.4%.
To `CCOc1ccccc1NC(=O)C1CCC(CNS(=O)(=O)c2ccc3c(c2)CCCC(=O)N3)CC1` (stereo not drawn) belongs inactive: -5.92%; to `CCCCCCCCCCCCCC[N+](C)(C)C`, inactive: -13.7%.
On to `CCc1cccc(C)c1Nc1c(-c2ccc(SC)cc2)nc2sccn12`, for which the “activation” value was inactive: -38.4%.
`COc1ccc(S(=O)(=O)c2c(Nc3c(C)cccc3C)sc(C(=O)c3ccc(F)cc3)c2N)cc1`: the “activation” value is inactive: -6.31%.
As for `Cc1ccc(CNc2nc3ccc(Cl)cc3n3cnnc23)cc1`, the figure is inactive: -9.75%.
Consider `COC(=O)c1ccccc1NC(=O)C1=CC(c2ccc3c(c2)OCO3)=NS(=O)(=O)N1C`, for which the “activation” value is inactive: -9.23%.
For the molecule `CCOc1ccc(CCNC(=O)c2cccc(Nc3nc4ccccc4nc3-n3nc(C)cc3C)c2)cc1OCC`, the “activation” value was inactive: -32.6%.
As for `Cc1cccc(NC(=O)Cn2c(=O)n(Cc3ccccc3)c(=O)c3sc4ccccc4c32)c1`, the figure is inactive: -1.54%.
With `Fc1ccc(-c2noc3ncnc(Nc4ccc(F)cc4F)c23)cc1`, the “activation” value is inactive: -31.4%.
As for `CCOc1ccc(N(C(=O)c2ccc(Cl)cc2)S(=O)(=O)c2ccc3c(c2)n(C)c(=O)n3C)cc1`, the “activation” value was inactive: -3.32%.
Turning to `O=C(CC1N=C2c3ccccc3N=C(SCc3ccc(F)cc3)N2C1=O)NC1CCCCC1` (stereo not drawn), the “activation” value is inactive: -16.2%.
For the molecule `Cc1ccc(C)c(NC(=O)CSc2nc(-c3ccccc3)c(C#N)c(=O)[nH]2)c1`, the “activation” value is inactive: -5.99%.
For `COc1ccc(-c2cc(-c3ccccc3)nc(SCC(=O)Nc3ccccc3C)c2C#N)cc1`, the “activation” value was inactive: -5.95%.
Turning to `CC(=O)c1cccc(NC(=O)Nc2c(C)n(C)n(-c3ccccc3)c2=O)c1`, the “activation” value is inactive: -4.98%.
For `COc1cccc(CNc2nc3ccccc3c3nc(-c4cccc(C)c4)nn23)c1`, the “activation” value is inactive: -3.44%.
In the case of `CCN1CCc2nc(N)oc2CC1`, the “activation” value is inactive: -10.8%.
Take `O=C(CSc1ccc(-c2cccs2)nn1)Nc1ccccc1`: the “activation” value is inactive: -15.7%.
To `Cc1cccc(NC(=O)CSc2ncc(-c3ccc(Br)cc3)[nH]2)c1` belongs inactive: -12.7%; to `COc1ccc(CCNC(=O)Cn2nnc(-c3ccc(Cl)cc3)n2)cc1OC`, inactive: 4.55%.
As for `Cc1ccc(CN(Cc2ccco2)C(=O)c2ccc(Cl)cc2Cl)cc1`, the figure is inactive: -6.75%.
